Results on 14 molecules are retold here after article PMC12136788.

First the molecules themselves.
T1: UNK ZnF1-6 (called full-length) (human, UniProt Q9C0B0 30-357)
T1 sequence: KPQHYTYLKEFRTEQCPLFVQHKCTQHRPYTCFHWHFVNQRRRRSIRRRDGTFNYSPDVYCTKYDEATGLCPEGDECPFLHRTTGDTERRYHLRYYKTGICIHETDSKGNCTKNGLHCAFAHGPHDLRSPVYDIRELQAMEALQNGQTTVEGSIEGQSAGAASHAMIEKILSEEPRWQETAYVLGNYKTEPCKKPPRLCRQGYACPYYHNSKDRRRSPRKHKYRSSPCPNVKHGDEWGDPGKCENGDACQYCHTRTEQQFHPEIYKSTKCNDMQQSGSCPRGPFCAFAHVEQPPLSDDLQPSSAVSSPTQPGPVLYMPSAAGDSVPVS

B1: chr11:8104520:8104621:+|3pUTR|ENSG00000166402|msi1|total|mutant (ssRNA)
RNA: GGGAGUUCUACAGUCCGACGAUCGGCAAUCAGCAAUCAACUGAGGUUUCUUAAUUGUGAUUAUAUUCCUGAGAAUGAAUGAGCCGGAAAGGAAUAAGGAUGUUGUUAUGAUCGCCUGUGGAUUUUGUCCAUUCAUCUCAUGCUCAACAGAGGAUUGAGCAUCA
B2: chr10:30820206:30820444:-|three_prime_utr|ENSG00000183621|control|control|control (ssRNA)
RNA: GGGAGUUCUACAGUCCGACGAUCCUUAUCUAAUCUCCAAAUGAAGAAUGGGCCCAUCUGACAUAUCCUAUGAGCACAAAGCUUAGGGGACUCUUCACCGAAACCUAGACAAAUAUUUGAAUGCAUUUUUUUUUUUUUUUUUUGCAACAGAGGAUUGAGCAUCA
B3: chr11:74334375:74334476:-|3pUTR|ENSG00000165434|msi1|FALSE|unique (ssRNA)
RNA: GGGAGUUCUACAGUCCGACGAUCUUUUUGUUUUAUUUUUAAAAUGUGUAAAACAUCUUUUGUUUUAUAUGCUUUUAAGAAUGUAGAUUGUAAUUUAGGAAAUGGCAUAUAUUCUGCAAAGUGGUAUAAUGUUGUAUAUAUGAACAACAGAGGAUUGAGCAUCA
B4: chr3:160432293:160432405:+|CDS|ENSG00000113810|unk|total|mutant (ssRNA)
RNA: GGGAGUUCUACAGUCCGACGAUCGAAUUGUAUUUGCAACGGGCCGCAGAAUUGGACAAAAUUACUUAUGAAAGAGACAGUUUCCGACAGGCAUAUGAAGAUCUUCGGAAACAAAGGCUUAAUGAAUUUAUGGCAGGUUUUUAUCAACAGAGGAUUGAGCAUCA
B5: chr16:75111859:75112521:-|three_prime_utr|ENSG00000166816|control|control|control (ssRNA)
RNA: GGGAGUUCUACAGUCCGACGAUCGCUGCAGGAGGAGGUGGGCGCCGUGGGCGUGGAGACCAUGCGGCAGCUCAAGGCCGUGCUAGACCCCCAAGGCCUCAUGAAUCCAGGCAAAGUGCUGUGAAGGGGGUCUGAGCACUUAGCCAACAGAGGAUUGAGCAUCA
B6: chr18:2547350:2547451:-|CDS|ENSG00000101574|unk|total|mutant (ssRNA)
RNA: GGGAGUUCUACAGUCCGACGAUCCCGACAGAAGCACCUACGUUUUAUAAAGGAAGAACUUUAUCCCUCUUGGUCUGUGGAGGCCGUUGCUGAGUGGCACUGGGUAAAAGUAAGUUCAGAAGUCCGCUUAUUUGUUAAUACAGCCAACAGAGGAUUGAGCAUCA
B7: chr1:16124349:16124452:-|3pUTR|ENSG00000142627|msi1|FALSE|unique (ssRNA)
RNA: GGGAGUUCUACAGUCCGACGAUCUUUGUUUUGUUGGACAUUUUUUUCGAAUCUUAAUUUAUUAUUUUUUUUAUAUUUAUUGUUAGAAAAUGACUUAUUUCUGCUCUGGAAUAAAGUUGCAGAUGAUUCAAACCGAUCUUGGCUCAACAGAGGAUUGAGCAUCA
B8: chr2:32508095:32508220:+|CDS|ENSG00000115760|unk|FALSE|unique (ssRNA)
RNA: GGGAGUUCUACAGUCCGACGAUCAGCCGAAGUAGCUUCUGCUGUCUGCCUUAGACUACAUCGUCCACGGGAUGCCAGCACAUUAGGCCUUUCACAAAUUAAAUUAUUGGGGCUCACUGCUUUUGGUACCACCUCUUCUGCAACCAACAGAGGAUUGAGCAUCA
B9: chr12:100626600:100626701:+|3pUTR|ENSG00000139354|unk|FALSE|unique (ssRNA)
RNA: GGGAGUUCUACAGUCCGACGAUCAAUUUUAUCAUCAAGUAUUCCCUUAUAAAACCAAGUAACACUUCUUUAUCAGUAACUUUUAGAACUUAAAAGAAAGCAAAAAGUAAAUGGAAUUGUAGGCAAUUUAUGAAUCCUAGUAGACAACAGAGGAUUGAGCAUCA
B10: ENSG00000107863:be:win_2351|CDS|ENSG00000107863|bound_else_gene|NA|bound_elsewhere_windowed (ssRNA)
RNA: GGGAGUUCUACAGUCCGACGAUCAAAGAAUGGAGGAAAGAAAAGCCUCGAGUACCAGUCCGCCUGGCGAUUCUUUGGCUUCCAUCCCAUUUAUAGAUGAACCAACUAGCCCUAGCAUUGAUCAUGAUAUUGCACAUAUCCCUGCAACAGAGGAUUGAGCAUCA
B11: chr3:13816257:13818943:-|three_prime_utr|ENSG00000154764|control|control|control (ssRNA)
RNA: GGGAGUUCUACAGUCCGACGAUCGAAUUCUUCCACCUCGUCGGGAUCCGUUUUCUGCAAUCAAAGUGGACUGCUUGCUUUCCUAGCAGGAUGAUUUUGUUGCUAGGACAAGGAGCCGUGUAGAAGUGUACAUAACUAUUCUUUCAACAGAGGAUUGAGCAUCA
B12: chr20:45097661:45098695:-|CDS|ENSG00000124134|control|control|control (ssRNA)
RNA: GGGAGUUCUACAGUCCGACGAUCGCACGUGCUCGACGAGCUGUGCGUCUUCGCCUUUGGCCAGGAGGCCGACUACUGGGGCCUAGGCGAGAACGCGCUUGCCGCGUGCUGCCGCGCGCGCUACCUGGAGAGGCGGCUGACCCACAACAGAGGAUUGAGCAUCA
B13: chr2:189033597:189033698:-|3pUTR|ENSG00000204262|msi1|FALSE|unique (ssRNA)
RNA: GGGAGUUCUACAGUCCGACGAUCAAGAGUGGGGUAUAUAGAGCCACAACACAUGUUUAUUUUGCUUGGCUGCAGUUGAAAAAUAGAAAUUAGUGCCCUUUUGUGACCUCUCAUUCCAAGAUUGUCAAUUAAAAAUGAGUUUAACAACAGAGGAUUGAGCAUCA
B14: chr9:77717828:77717929:-|3pUTR|ENSG00000156052|unk|FALSE|unique (ssRNA)
RNA: GGGAGUUCUACAGUCCGACGAUCGUGCCUCAUAUCUGAAACAAAGGGAAAUAACACACCCAUUCAAAAGUAAAUAAAUCUCCUAGAAGUUUUUGUUUUUAACAUUUCCAUAUAAAGAGCUCUGUUGAAUGUCAUGAAUAGACUCAACAGAGGAUUGAGCAUCA

This is one part of the list.

This test addresses T1, UNK ZnF1-6 (called full-length). As to the kind of experiment: nsRBNS (natural sequence RNA bind-n-seq); RBNS binding buffer (assumed for nsRBNS): 25 mM Tris pH 7.5, 150 mM KCl, 3 mM MgCl2, 0.01% Triton X-100, 500 ug/ml BSA, 20 U/ml SUPERase-In, 4 C; UNK is unkempt and MSI1 is Musashi-1; names of the RNAs are library labels; protein concentration not given here; high values mean tight binding.
As for B1, the binding signal came to 0.251 enrichment R.
Next, B2: 27.7 enrichment R; B3: 3.22 enrichment R.
B4 returned a binding signal of 0.43 enrichment R.
The value for B5 was 0.721 enrichment R.
The value for B6 was 0.529 enrichment R.
Next, B7: 8.98 enrichment R; B8: 1.06 enrichment R.
As for B9, the binding signal came to 4.55 enrichment R.
The value for B10 was 2.15 enrichment R.
In turn, B11 showed a binding signal of 0.433 enrichment R.
Next, B12: 0.576 enrichment R.
The value for B13 was 1.5 enrichment R.
B14 yielded a binding signal of 0.799 enrichment R.
